Tests used:
A2780 xenografts = assay: A2780 ovarian cancer xenograft in Mf1 nude mice (tumor growth); format: in vivo, human
Protocol: Tumor weights are indicated after treatment of inoculated mice with a human control IgG or with RAM0. Antibodies were applied either alone or in combination with cisplatin.
This effect is of high relevance, in particular if it can also be observed in vivo. This was explored in female Mf1 nude mice inoculated with A2780 xenografts (FIG. 5). Mice (n=10/group) were inoculated with 1*10^6 A2780 cells resuspended in matrigel. […] Cisplatin was administered once a week starting on day 2 after xenograft inoculation.

[1] = tested on: A2780adr ovarian cancer cells; assay: Induction of apoptosis (caspase 3 activity) in doxorubicin-resistant ovarian cancer cells; format: cell-based, human; conditions: for caspase 3 activity: 72 hours of treatment
Protocol: The percentage increased caspase 3 activity over non-treated cells is indicated. Cells were treated with a human isotype control IgG (Control IgG), anti-MIF antibody RAM0 or RAM9 alone, a combination of control IgG and doxorubicin (Control IgG+Dox), doxorubicin alone (Dox) or a combination of anti-MIF antibody and doxorubicin (RAM0+Dox or RAM9+Dox).
The induction of apoptosis was assessed by detection of caspase 3 activity after 72 hours of treatment.

redMIF = biological target: T1, redMIF (Homo sapiens, UniProt P14174); assay: Differential binding of the antibodies to redMIF (ELISA or Biacore); conditions: MIF in its reduced state
T1 sequence (P14174 1-115): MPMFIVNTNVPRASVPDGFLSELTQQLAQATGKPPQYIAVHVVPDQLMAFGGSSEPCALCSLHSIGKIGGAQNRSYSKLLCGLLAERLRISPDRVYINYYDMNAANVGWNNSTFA
Protocol: (§1) The anti-oxMIF antibodies described in this invention are able to discriminate between ox and red MIF, which are generated by mild oxidation or reduction, respectively. The anti-oxMIF antibodies are useful to specifically detect oxMIF. Discrimination between these conformers is assessed by ELISA or surface plasmon resonance. Both techniques can be performed as well known to a person skilled in the art and as described below.
(§2) The antibodies were coated on a CM5 (=carboxymethylated dextran) chip and recombinant MIF protein, pre-incubated with 0.2% Proclin300, were injected. (Proclin300 consists of oxidative isothiazolones that stabilize the oxMIF structure).
(§3) The antibodies of the invention, as defined hereinabove and hereinafter, have the same specificities. They thus also show similar results in the experiments as carried out by the present inventors.

[2] = tested on: Colo357 human pancreatic cancer cell line; assay: Orthotopic Colo357 xenograft model for pancreatic cancer in nude mice (survival, tumor volume, microvessel density); format: in vivo; conditions: for blood vessel density in the tumour microenvironment: day 12, FITC-conjugated tomato lectin
Protocol: Control groups were left untreated or were treated with gemcitabine alone (Gem) or a control human monoclonal antibody alone (Control) or with a control human monoclonal antibody in combination with gemcitabine (Control+Gem). (A) Survival curves representing the points in time when animals had to be sacrificed in accordance with UK Home Office Guidance. (B) Tumor volume was measured in as subset of animals after animals had been sacrificed on day 20 after cell implantation. (C) After treatment, mice bearing a Colo357 xenograft were injected i.v. with the FITC-conjugated tomato lectin to visualize the blood vessels on day 12. Microvessel density was quantified using ImagePro Plus software (Image-Pro plus, Media Cybernetics) and vessel density was expressed as the mean percentage of total surface area.
CD1-Foxn1/nu nude mice are orthotopically inoculated with 1×10^5 Colo357 cells (injection of 30 μl matrigel:tumor cell suspension into the pancreas) and the tumor was allowed to establish for 7 days. […] Additional control groups were left untreated or received a control human IgG1 monoclonal antibody. The growth of internal tumors was judged by external signs (e.g. abdominal distension causing more than 20% increase in normal body weight, or a 20% loss in normal body weight) or clinical signs (e.g. dyspnoea, jaundice, neurological signs, digestive disturbances). Animals reaching the home office limit according to the UK home office guidance were sacrificed (for animal welfare reasons). The resulting survival curve was used as primary outcome of the study.
We further analyzed […] vessel density in a small cohort of animals. All mice were orthotopically injected with Colo357 cells, tumours were established for 1 week and the different groups were treated as described above. On day 12, mice were anesthetized and injected with FITC-conjugated tomato lectin to visualize the blood vessel density within the tumor. The lectins were allowed to circulate for 3 min before animals were perfused with 4% paraformaldehyde. Tumors were cut into 50 μm sections. Cell nuclei were stained using propidium iodide, and vessels were visualized using confocal microscopy (Zeiss LSM 510 META), and microvessel density was quantified using ImagePro Plus software (Image-Pro plus, Media Cybernetics). Vessel density was expressed as the mean

oxMIF = biological target: T2, oxMIF (Homo sapiens, UniProt P14174); assay: Differential binding of the antibodies to oxMIF (ELISA or Biacore)
T2 sequence (P14174 2-115 limits assumed): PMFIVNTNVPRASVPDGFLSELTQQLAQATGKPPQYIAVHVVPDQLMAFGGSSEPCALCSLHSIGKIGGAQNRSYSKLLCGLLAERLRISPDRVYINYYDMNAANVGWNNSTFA
Protocol: as §1, §2, §3

LnCAP cells = assay: Mitoxantrone-dependent cell killing assay (calcein-AM, flow cytometry); format: cell-based, human
Protocol: The single values as well as the mean±standard deviation of 10 independent experiments are shown.
(§4) After 48 hours of incubation cells were detached with Accutase™, labeled with calcein-AM and the level of calcein fluorescence was determined by flow cytometry. The mean fluorescence intensity in the absence of any drug or antibody was set to 1 to normalize for interassay variations. The mean fluorescent intensities were plotted against the mitoxantrone concentration and the half maximum active concentrations of mitoxantrone (EC50-values) were calculated.

A2780 cells = assay: Cisplatin-dependent cell killing assay (calcein-AM, flow cytometry); format: cell-based, human
Protocol: Data are the means±standard deviation of 9 independent experiments.
as §4, with “blotted” for “plotted”, “cisplatin” for “mitoxantrone”

B1: RAM0: fully human anti-MIF (anti-oxMIF) antibody; heavy chain SEQ ID NO: 9, light chain SEQ ID NO: 10; DSM 25864/25863 (antibody)
heavy: EVQLLESGGGLVQPGGSLRLSCAASGFTFSWYAMDWVRQAPGKGLEWVSGIYPSGGRTKYADSVKGRFTISRDNSKNTLYLQMNSLRAEDTAVYYCARVNVIAVAGTGYYYYGMDVWGQGTTVTVSSASTKGPSVFPLAPSSKSTSGGTAALGCLVKDYFPEPVTVSWNSGALTSGVHTFPAVLQSSGLYSLSSVVTVPSSSLGTQTYICNVNHKPSNTKVDKRV[here human IgG1 Fc without letters]
light: DIQMTQSPGTLSLSPGERATLSCRASQGVSSSSLAWYQQKPGQAPRLLIYGTSSRATGIPDRFSGSASGTDFTLTISRLQPEDFAVYYCQQYGRSLTFGGGTKVEIKRTVAAPSVFIFPPSDEQLKSGTASVVCLLNNFYPREAKVQWKVDNALQSGNSQESVTEQDSKDSTYSLSSTLTLSKADYEKHKVYACEVTHQGLSSPVTKSFNRGEC
modifications: RAM0hc; RAM0lc
notes: fully human anti-MIF (anti-oxMIF) antibody; DSM 25864/25863
Effect (A2780 xenografts; Ovarian cancer, antibody combined with Cisplatin, In vivo): Synergy | tumor growth (A2780 xenografts; RAM0 15 mg/kg in combination with cisplatin, p=0.04): significantly reduced tumor growth | tumor growth (A2780 xenografts; monotherapy, RAM0 15 mg/kg every other day or cisplatin once a week): minor but not significant effect | Effect ([1]; Ovarian cancer, antibody combined with Doxorubicin, In vitro): Synery | caspase 3 activity ([1]; agent alone): did not show any enhanced caspase 3 activity | caspase 3 activity ([1]; anti-MIF antibody in combination with doxorubicin): further enhanced caspase 3 activity | binding to redMIF (redMIF): incapable of binding to redMIF | survival ([2]; 60 mg/kg RAM0 in combination with 100 mg/kg gemcitabine): greater than the effect of the two agents alone | tumor volume ([2]; 60 mg/kg RAM0 in combination with 100 mg/kg gemcitabine, day 20 after cell implantation): strongly reduced tumor volume | Effect ([2]; Pancreatic cancer, antibody combined with Gemcitabine, In vivo): Synergy | blood vessel density in the tumour microenvironment ([2]; RAM0 in combination with gemcitabine): normalises blood vessel density | blood vessel density in the tumour microenvironment ([2]; monotherapy): Neither gemcitabine nor RAM0 have a significant effect | survival ([2]; monotherapy, gemcitabine 100 mg/kg or RAM0 60 mg/kg alone, i.p., Colo357 in nude mice): significant effect on survival | binding to oxMIF (oxMIF): specifically bind to oxMIF | Effect (LnCAP cells; Prostate cancer, antibody combined with Mitoxantrone, In vitro): Synergy | cell killing (LnCAP cells; antibody as monotherapy (in absence of mitoxantrone), in comparison to isotype control antibody, data not shown): no effect on cell killing | Effect (A2780 cells; Ovarian cancer, antibody combined with Cisplatin, In vitro): Synergy | cell killing (A2780 cells; antibody as monotherapy (in absence of cisplatin), in comparison to isotype control antibody, data not shown): no effect on cell killing
